About 14,000 (4.5%) of roughly 310,000 compounds showed an effect of 50% or more. The effect is printed as a negative number. The list shows a part of the results.
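Further: peak tail current of the secondary pulse compared with the same well before compound.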

In this test the target is human ether-à-go-go-related gene (hERG) potassium channel (human, UniProt Q12809). In words: primary screen, population patch clamp on CHO cells stably expressing hERG.
Chain of human ether-à-go-go-related gene (hERG) potassium channel (Q12809 whole entry, looked up): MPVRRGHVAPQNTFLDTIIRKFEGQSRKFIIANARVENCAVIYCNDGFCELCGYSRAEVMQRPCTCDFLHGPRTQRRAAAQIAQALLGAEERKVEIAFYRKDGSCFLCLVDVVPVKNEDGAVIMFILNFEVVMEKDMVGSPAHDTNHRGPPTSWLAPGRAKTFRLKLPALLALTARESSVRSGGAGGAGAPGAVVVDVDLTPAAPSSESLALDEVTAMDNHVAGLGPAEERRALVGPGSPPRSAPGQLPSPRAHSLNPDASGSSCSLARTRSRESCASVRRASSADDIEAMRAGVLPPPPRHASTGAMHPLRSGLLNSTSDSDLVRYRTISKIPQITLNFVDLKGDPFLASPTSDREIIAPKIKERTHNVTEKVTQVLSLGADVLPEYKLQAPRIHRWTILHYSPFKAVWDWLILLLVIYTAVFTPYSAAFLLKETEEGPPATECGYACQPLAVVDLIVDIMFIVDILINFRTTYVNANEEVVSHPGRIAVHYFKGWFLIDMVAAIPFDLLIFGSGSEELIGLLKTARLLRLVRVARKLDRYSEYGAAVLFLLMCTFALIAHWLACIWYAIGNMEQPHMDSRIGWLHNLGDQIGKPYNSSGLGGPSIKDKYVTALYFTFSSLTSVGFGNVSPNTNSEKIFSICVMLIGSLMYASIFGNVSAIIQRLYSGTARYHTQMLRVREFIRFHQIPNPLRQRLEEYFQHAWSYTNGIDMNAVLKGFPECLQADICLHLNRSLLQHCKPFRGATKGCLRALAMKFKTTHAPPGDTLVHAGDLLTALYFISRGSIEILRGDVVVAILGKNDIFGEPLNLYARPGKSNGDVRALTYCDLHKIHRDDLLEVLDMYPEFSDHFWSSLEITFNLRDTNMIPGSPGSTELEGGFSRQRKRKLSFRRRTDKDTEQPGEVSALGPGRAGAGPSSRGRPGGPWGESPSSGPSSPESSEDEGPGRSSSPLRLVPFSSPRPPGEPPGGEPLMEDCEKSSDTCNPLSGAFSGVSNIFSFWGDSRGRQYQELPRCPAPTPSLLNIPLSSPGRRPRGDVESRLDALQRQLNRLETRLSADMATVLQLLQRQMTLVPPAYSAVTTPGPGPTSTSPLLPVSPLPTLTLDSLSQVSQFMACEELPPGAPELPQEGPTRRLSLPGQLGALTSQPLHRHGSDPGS
As to `COc1ccc(Cn2ccnc2SCC(=O)Nc2nnc(C)s2)cc1`, the “hERG current change (%, negative = inhibition) at 10uM” value is recorded as 12.2%.
On to `CCCCNC(=O)c1cc2c(=O)n3cccc(C)c3nc2s1`, for which the “hERG current change (%, negative = inhibition) at 10uM” value is 7.96%.
For `O=C1CC(c2ccccc2)NC(=O)N1` (centres unmarked), the “hERG current change (%, negative = inhibition) at 10uM” value is on record as -10.5%.
In the case of `O=C(CC1C(=O)NCCN1Cc1ccc(F)cc1)NCCOc1cccnc1` (centres unmarked), the “hERG current change (%, negative = inhibition) at 10uM” value is listed as 8.34%.
In the case of `COc1ccc(-c2nnc(-c3cc(OC)c(OC)c(OC)c3)o2)cc1OC` it was -5.96%.
In the case of `COc1cc(NS(=O)(=O)c2ccc(NC(=O)CCC(=O)O)cc2)nc(OC)n1` it was 7.35%; in that of `CC(C)c1cc(C(=O)NC2CCCCC2)no1`, -1.07%; in that of `O=C(O)COc1ccccc1`, 23.6%.
`Cc1cc(NS(=O)(=O)c2ccc(NC(=O)CSc3nc4ncc(Cl)cc4[nH]3)cc2)nc(C)n1`: the “hERG current change (%, negative = inhibition) at 10uM” value was determined as 18.5%.
Regarding `COc1cccc(/C=C(/C#N)c2nc3ccccc3[nH]2)c1OC(C)C(=O)O` (centres unmarked), the “hERG current change (%, negative = inhibition) at 10uM” value is recorded as 10.2%.
For the compound `COc1ccc(NS(=O)(=O)c2c(C)cc(C)cc2C)cc1`, the “hERG current change (%, negative = inhibition) at 10uM” value is on record as -7.32%.
Turning to `Cc1nnc(SCC(=O)N2CCCC(N3CCN(c4ccc(F)cc4)CC3)C2)o1` (centres unmarked), the “hERG current change (%, negative = inhibition) at 10uM” value was -28.8%.
For `Cc1ccc(CNc2ncccc2-c2nc3cc(Cl)ccc3o2)cc1`, the “hERG current change (%, negative = inhibition) at 10uM” value was determined as 3.59%.
With `CC1CCC(C(C)C)C(OCC(O)CNC(C)c2ccccc2)C1.Cl` (centres unmarked), the “hERG current change (%, negative = inhibition) at 10uM” value worked out at 0.875%.
For `CCOC(=O)c1sc(N)c(C#N)c1COC(=O)C1=COCCO1`, the “hERG current change (%, negative = inhibition) at 10uM” value turned out to be 3.69%.
Take `CC(=O)N1CCN(CC(=O)Nc2cc(S(=O)(=O)N3CCOCC3)ccc2C)CC1`: the “hERG current change (%, negative = inhibition) at 10uM” value is listed as 10.7%.
Regarding `CCOC(=O)c1n[nH]n2c1nc(=S)c1ccccc12`, the “hERG current change (%, negative = inhibition) at 10uM” value worked out at 16.1%.
On to `COc1ccc(NC(=S)/N=C(\N)Nc2nc(C)c3ccc(C)cc3n2)cc1`, for which the “hERG current change (%, negative = inhibition) at 10uM” value was 12.5%.
On to `O=C(O)C1CC=CCC1C(=O)Nc1ccc(N2CCN(Cc3ccccc3)CC2)cc1` (centres unmarked), for which the “hERG current change (%, negative = inhibition) at 10uM” value amounted to 7.25%.
Then `COc1ccc(OC)c(NC(=O)c2cc(-c3cc(C)c(C)cc3O)n[nH]2)c1`, with 28.7%.
In the case of `O=C1CCC(C(=O)N2CCC(CO)CC2)CN1Cc1ccc(Cl)cc1` (centres unmarked), the “hERG current change (%, negative = inhibition) at 10uM” value is 13.5%.
On to `COc1cc(NC(=O)CCNC(=O)Cn2cnc3sc4c(c3c2=O)CCCC4)cc(OC)c1OC`, for which the “hERG current change (%, negative = inhibition) at 10uM” value was determined as 5.48%.
In the case of `CN(C)c1ccc(-c2nc3ccccc3c(=O)[nH]2)cc1`, the “hERG current change (%, negative = inhibition) at 10uM” value is listed as 8.36%.
As for `CN1CCN(CCCNC(=O)c2ccc(CSCc3cccc(Cl)c3)o2)CC1`, the “hERG current change (%, negative = inhibition) at 10uM” value is -40.2%.
In the case of `COc1cc(/C=N/Nc2ccnc(=O)[nH]2)ccc1O` it was 9.52%.
In the case of `COc1ccc(C(=O)NCC(C)NC(=O)c2ccc(OC)cc2)cc1` (centres unmarked), the “hERG current change (%, negative = inhibition) at 10uM” value is on record as 10.5%.
In the case of `CN(Cc1ccco1)C(=O)c1ccc(N2CCCC2=O)cc1` it was 14.3%; in that of `CCOCCn1c(COc2ccccc2)nc2ccccc21`, -33.6%; in that of `COc1ccc(Nc2cc(C(=O)N3CCc4ccccc4C3)c3ccccc3n2)c(OC)c1`, 6.56%.
Consider `COC(=O)c1ccccc1NC(=O)CSc1n[nH]c(-c2cccnc2)n1`, for which the “hERG current change (%, negative = inhibition) at 10uM” value is 4.96%.
Consider `C=CCn1c(CNc2ccc(C)cc2)nnc1SCC(=O)N/N=C/c1ccc(O)cc1O`, for which the “hERG current change (%, negative = inhibition) at 10uM” value is reported as -3.99%.
As for `COc1cc(OCC(=O)NC(C)C)cc2c1C(=O)O[C@@H](C)CCCC(=O)CCCCC2`, the “hERG current change (%, negative = inhibition) at 10uM” value is given as 6.06%.
On to `O=C(NNC1CC(c2ccccc2)=NN1C(=O)c1ccccc1)c1ccccc1` (centres unmarked), for which the “hERG current change (%, negative = inhibition) at 10uM” value was -12%.
In the case of `C=CCN(c1ccccc1)S(=O)(=O)c1cc(C(=O)NC2=NCCS2)ccc1Cl` it was 63.3%; in that of `CC1CCC(C(C)C)C(OP(N)(=O)c2ccccc2)C1` (centres unmarked), -4.93%.
With `O=C(N/N=C/c1cc(Br)c(Br)o1)c1ccc2c(c1)OCCO2`, the “hERG current change (%, negative = inhibition) at 10uM” value was found to be 2.08%.
In the case of `Cc1[nH]n(C(N)=S)c(=O)c1N=Nc1cccc(C(F)(F)F)c1`, the “hERG current change (%, negative = inhibition) at 10uM” value worked out at 24.4%.
In the case of `O=C(CC12CC3CC(CC(C3)C1)C2)NCC(=O)OCc1cc(=O)oc2ccc3ccccc3c12` it was 18.7%.
Take `CC(C)(C)c1ccc(OCCCC(=O)N2CCOCC2)cc1`: the “hERG current change (%, negative = inhibition) at 10uM” value was -4.06%.
Turning to `COc1ccc(NC(=O)CSc2nnc(Cc3cccn3C)n2CCc2ccccc2)cc1OC`, the “hERG current change (%, negative = inhibition) at 10uM” value is listed as -1.16%.
For the compound `CC(C)CCNC(=O)c1ccc(CSCc2cccc(F)c2)o1`, the “hERG current change (%, negative = inhibition) at 10uM” value was -25.9%.
In the case of `CCn1c(SCC(=O)OC)nc2sc3c(c2c1=O)CC(C)(C)OC3` it was 1.06%; in that of `O=C(C1CC1)N1CCN(c2ccc([N+](=O)[O-])cc2-n2cccc2)CC1`, -31%; in that of `COc1ccccc1N(CC(=O)NC(C)(C)C)C(=O)Cn1nnc(-c2ccc(C)o2)n1`, 1.37%.
As to `CN(Cc1ccc(Cl)cc1Cl)C(=O)CN1C(=O)NC2(CCCC2)C1=O`, the “hERG current change (%, negative = inhibition) at 10uM” value is given as -26.6%.
As to `COc1ccc(NC(=S)NC2CCS(=O)(=O)C2)cc1` (centres unmarked), the “hERG current change (%, negative = inhibition) at 10uM” value is reported as -0.0205%.
In the case of `Cc1ccc(-c2nc(SCC(=O)N(C)C3CCS(=O)(=O)C3)[nH]c2-c2ccc(C)cc2)cc1` (centres unmarked), the “hERG current change (%, negative = inhibition) at 10uM” value is -41.3%.
In the case of `Cn1c(=O)c2c(O)cc(=O)[nH]c2n(-c2ccccc2)c1=O` it was 11.3%.
On to `NS(=O)(=O)c1ccc(CNC(=O)/C=C/c2ccc(S(=O)(=O)N3CCOCC3)cc2)cc1`, for which the “hERG current change (%, negative = inhibition) at 10uM” value was 29.5%.
As for `C/C=C1/CC(C)C(C)(O)C(=O)OCC2CCN3CCC(OC1=O)C23` (centres unmarked), the “hERG current change (%, negative = inhibition) at 10uM” value came out at 17.4%.
In the case of `CS(=O)(=O)N(CC(=O)Nc1ccccc1C(=O)N1CCOCC1)c1cccc([N+](=O)[O-])c1` it was -18.5%; in that of `O=C(O)CC(SCC(=O)Nc1ccc(Cl)c(S(=O)(=O)N2CCOCC2)c1)C(=O)O` (centres unmarked), -6.49%; in that of `Cc1cc(=O)n2nc(N3CCC(C(=O)NCCc4ccccc4)CC3)sc2n1`, -10.1%.
Take `Cc1ccccc1N1CCN(CC(=O)Nc2nccs2)CC1`: the “hERG current change (%, negative = inhibition) at 10uM” value is given as -2.21%.
With `Cc1ccnc(N(C(=O)c2cccs2)C(=O)c2cccs2)c1`, the “hERG current change (%, negative = inhibition) at 10uM” value is reported as 13%.
For the compound `COC(=O)NCCOc1cc(C)ccc1C`, the “hERG current change (%, negative = inhibition) at 10uM” value is -7.49%.

Source of the values: paper PMC4336329 (PLoS ONE, 2015).
